Where “and” joins values, the source holds several entries; their conditions need not be identical. Equal values may be shown once. In all, about 350,000 compounds went through this assay and about 31,000 (8.9%) were called active. The shares of active, inactive and inconclusive entries below differ from those in the screen. The call rests on the fitted dose curve; in most records, active means well fitted inhibition curve with a large enough effect; inconclusive means small, poorly fitted or top-dose-only effect; inactive means no such curve, though single readings can be large or run the other way. Potencies of inconclusive entries are doubtful fits and often do not repeat.
target: Histone-lysine N-methyltransferase EHMT2 (Homo sapiens) (UniProt Q96KQ7); test: qHTS Assay for Inhibitors of Histone Lysine Methyltransferase G9a; conditions: G9a H3K9 monomethylation, AlphaScreen, 2 h; activity, negative = inhibition: at 59 µM (top of the series) unless noted; further: nearly all actives have a fitted effect of over 75% in size
Chain of UniProt Q96KQ7 (Q96KQ7 whole entry, looked up): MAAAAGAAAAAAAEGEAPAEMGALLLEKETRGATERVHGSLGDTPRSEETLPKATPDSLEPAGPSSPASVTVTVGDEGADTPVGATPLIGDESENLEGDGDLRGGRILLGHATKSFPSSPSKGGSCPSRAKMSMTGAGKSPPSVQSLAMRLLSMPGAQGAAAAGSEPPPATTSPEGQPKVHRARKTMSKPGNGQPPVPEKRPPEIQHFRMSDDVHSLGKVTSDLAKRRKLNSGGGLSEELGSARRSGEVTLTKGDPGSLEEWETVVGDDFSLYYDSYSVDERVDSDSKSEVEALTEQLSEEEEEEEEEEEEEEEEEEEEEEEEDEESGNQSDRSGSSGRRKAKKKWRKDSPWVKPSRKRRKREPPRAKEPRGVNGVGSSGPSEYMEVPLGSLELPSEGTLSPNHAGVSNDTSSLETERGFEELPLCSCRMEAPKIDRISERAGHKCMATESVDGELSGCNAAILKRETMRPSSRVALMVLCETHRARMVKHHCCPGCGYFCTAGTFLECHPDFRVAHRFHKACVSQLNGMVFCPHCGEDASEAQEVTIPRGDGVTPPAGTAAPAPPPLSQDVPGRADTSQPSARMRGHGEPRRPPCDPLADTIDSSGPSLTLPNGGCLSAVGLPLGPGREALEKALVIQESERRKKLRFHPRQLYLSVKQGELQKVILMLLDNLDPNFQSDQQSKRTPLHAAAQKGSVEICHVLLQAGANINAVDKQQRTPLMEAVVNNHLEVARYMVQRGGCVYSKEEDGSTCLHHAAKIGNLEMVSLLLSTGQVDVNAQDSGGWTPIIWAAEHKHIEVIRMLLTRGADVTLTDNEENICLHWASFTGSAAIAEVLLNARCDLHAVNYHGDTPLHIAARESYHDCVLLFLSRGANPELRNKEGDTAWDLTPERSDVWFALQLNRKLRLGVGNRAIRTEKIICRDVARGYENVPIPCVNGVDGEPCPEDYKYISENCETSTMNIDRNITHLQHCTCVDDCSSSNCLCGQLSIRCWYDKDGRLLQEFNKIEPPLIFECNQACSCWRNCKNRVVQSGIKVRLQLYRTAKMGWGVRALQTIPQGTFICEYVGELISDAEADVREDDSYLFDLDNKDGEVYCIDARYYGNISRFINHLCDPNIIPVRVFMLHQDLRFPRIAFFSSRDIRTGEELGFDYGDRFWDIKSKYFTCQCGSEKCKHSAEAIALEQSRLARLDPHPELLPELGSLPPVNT
Outline: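 Signal arises when biotinylated H3K9 peptide, once monomethylated, bridges streptavidin donor and antibody-captured acceptor beads. Enzyme at 20 nM was preincubated 15 min with test compounds; peptide 500 nM and SAM 20 uM then reacted for 2 h.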
On the % scale 0 is the no-effect control and ±100 the full control effect; potency means the concentration at half of the fitted maximal effect; tags describe the fitted curve by direction and shape.

SMILES | activity, negative = inhibition | Potency
CCCCC1CCC(C(=O)N(CCOC)c2c(N)n(CC(C)C)c(=O)[nH]c2=O)CC1 (stereo unspecified) | inactive: 37% [at 12.7 µM] | 
COc1ccc(NC(=O)N2CCc3c(sc4c3CCCC4)C2c2ccc(F)cc2)cc1 (stereo unspecified) |  | inconclusive: 7.08 µM [inhibitor, partial curve, poor fit]
CCC(C)NCCC(=O)Nc1ccc(Cl)c(S(=O)(=O)Nc2ccc(Cl)cc2)c1 (stereo unspecified) | inactive: -41.1% [at 102 µM] | 
CSc1sc(C(=O)OC(C)C)c2c1C(=O)CC(C)(C)C2 | inactive: 2.95% [at 102 µM] | 
O=C(Nc1ccc(Cl)cc1)C1C2C=CC3(O2)C1C(=O)N(CCCN1CCCCC1)C3C(=O)NC1CCCCC1 (stereo unspecified) |  | active: 50.1 µM
CN(C)C(=O)c1ccc(S(=O)(=O)NCc2ccccc2Cl)s1 | inactive: 22.8% | 
N#Cc1nc(-c2cccc3ccccc23)oc1NCC#CCOC(=O)c1cccs1 | inactive: 3.34% [at 12.7 µM] | 
O=C(N/N=C/c1ccccn1)c1ccncc1 |  | inconclusive: 0.794 µM [inhibitor, full curve, poor fit]
COc1ccc(-c2nc(NC(=O)C3CC(=O)N(Cc4ccco4)C3)sc2C)cc1 (stereo unspecified) | inactive: -8.98% [at 2.33 µM] | 
CC(=O)c1c(C)[nH]c(C(=O)NNC(=O)COc2cc(C)cc(C)c2)c1C |  | active: 50.1 µM
CCCc1nn2c(=O)cc(CSCC(=O)Nc3ccc(OC)cc3)nc2s1 |  | inconclusive: 50.1 µM [inhibitor, partial curve, poor fit]
Cc1ccc(NC(=O)Nc2nnc(N3CCCCC3)s2)c(C)c1 |  | inconclusive: 39.8 µM [inhibitor, partial curve, poor fit]
Cn1c(=O)c2c(ncn2C[C@@H](O)CO)n(C)c1=O | inactive: 6.79% [at 21.5 µM] | 
CC1=C(C(=O)Nc2ccccc2)C(c2ccccc2[N+](=O)[O-])NC(=O)N1 (stereo unspecified) |  | inconclusive: 28.2 µM [inhibitor, full curve, poor fit]
CNC(=O)[C@@H]1CCC(=O)N1 | inactive: -4.52% [at 0.501 µM] | 
Cc1ccc(C)c(N2CCN(C(=O)Cn3cccc3)CC2)c1 |  | active: 50.1 µM
O=C(C1=C(O)C(=O)N(CC2CCCO2)C1c1ccccc1Cl)c1ccco1 (stereo unspecified) |  | inconclusive: 56.2 µM [inhibitor, single point]
Cc1cc(C)c(S(=O)(=O)NCc2ccc3c(c2)cc(C)n3C)c(C)c1 |  | inconclusive: 25.1 µM [inhibitor, single point]
CN(c1ccccc1C(=O)Nc1ccc(F)c(F)c1)S(C)(=O)=O |  | inconclusive: 79.4 µM [inhibitor, single point]
O=C(NN1CCN(Cc2ccccc2)CC1)c1ccc(N2CCOCC2)c([N+](=O)[O-])c1 |  | inconclusive: 89.1 µM [inhibitor, single point]
O=C(OCC(=O)N1CCN(c2ccccc2)CC1)c1cccc([N+](=O)[O-])c1 |  | inconclusive: 79.4 µM [inhibitor, single point]
COc1ccc(C2NCCc3c2[nH]c2ccccc32)cc1COc1ccc(F)cc1 (stereo unspecified) |  | inconclusive: 31.6 µM [inhibitor, single point]
O=[N+]([O-])c1cccc(S(=O)(=O)c2ccc(N3CCCCC3)c([N+](=O)[O-])c2)c1 |  | inconclusive: 20 µM [inhibitor, single point]
O=C(O)CCN1C(=O)/C(=C\c2cccc(OCc3ccccc3)c2)SC1=S |  | inconclusive: 35.5 µM [inhibitor, single point]

SMILES | activity, negative = inhibition | Potency
O=C1CC[C@@H](OCc2ccccc2)CCN1CC[C@H](Sc1ccccc1)c1ccccc1 | inactive: 40.4% [at 102 µM] | 
CCOC(=O)c1cccc(NC(=O)c2cc3ccccc3o2)c1 | inactive: 42.5% | 
CC(CCc1ccccc1)NC(=O)CN1CCN(c2ccc(O)cc2)CC1 (stereo unspecified) |  | active: 7.94 µM
CNC(=O)c1cc(C(=O)c2ccc(Cl)cc2)c[nH]1 | inactive: -5.89% [at 102 µM] | 
Cc1ccc(NC(=O)COC(=O)CSC(=S)N2CCOCC2)cc1 | inactive: -29.2% [at 102 µM] | 
CCCC12C(=O)C(C)(C(c3ccccc3)=C1c1ccccc1)C1C(=O)N(c3ccc(C)cc3)C(=O)C12 (stereo unspecified) |  | inconclusive: 56.2 µM [inhibitor, partial curve, poor fit]
COc1ccc(COC(=O)c2cc([N+](=O)[O-])ccc2N2CCOCC2)cc1F |  | inconclusive: 39.8 µM [inhibitor, partial curve, poor fit]
O=C(Nc1cc(Cl)ccc1-n1cncn1)c1ccc([N+](=O)[O-])s1 |  | inconclusive: 63.1 µM [inhibitor, single point]
O=C(C1=C[C@H](c2ccc(C(F)(F)F)cc2)C[C@H](OCc2ccc(CO)cc2)O1)N1CCN(Cc2ccc3c(c2)OCO3)CC1 | inconclusive: -69.2% [inhibitor] | 
OCCN(CC#CCC(O)(c1ccccc1)C1CCCC1)CCO (stereo unspecified) | inactive: 17.9% [at 12.7 µM] | 
CCN(CC)c1ccc(/C=N/NC(=O)CNC(=O)c2ccccn2)cc1 |  | inconclusive: 7.08 µM [inhibitor, partial curve, poor fit]
CCn1c(SCC(=O)NC2CCCC2)nnc1C(C)NC(=O)c1ccccc1Br (stereo unspecified) | inactive: -0.465% [at 102 µM] | 
Cc1cccc(N2CCN(C(=O)Nc3ccc(F)cc3)CC2C)c1 (stereo unspecified) | inactive: 0.975% | 
CC(=O)N1c2c(ccc3ccccc23)C(C)CC12CCCCC2 (stereo unspecified) | inactive: 14.5% | 
Cc1c(Cl)cccc1N1CC(c2nc3ccccc3n2Cc2ccccc2F)CC1=O (stereo unspecified) | inactive: -4.34% | 
COc1ccc(C(=O)Nc2cccc(C(=O)N/N=C/c3ccc(OC)cc3OC)c2)cc1 | inactive: 7.46% [at 102 µM] | 
O=C(CSc1nc2[nH]ncc2c(=O)[nH]1)Nc1cccc(Cl)c1 |  | inconclusive: 44.7 µM [inhibitor, partial curve, poor fit]
CCCCCSc1nnc2c(n1)OC(c1ccc(C)s1)N(C(C)=O)c1ccccc1-2 (stereo unspecified) |  | inconclusive: 14.1 µM [inhibitor, partial curve]
CN(C)c1oc(-c2ccco2)nc1S(=O)(=O)c1ccc(Br)cc1 | inactive: 0.749% [at 12.7 µM] | 
Cc1cc(=O)[nH]c2nnc(SCc3cccc(F)c3)n12 | inactive: 1.37% | 
Cc1cc(-n2c(C)cc(C(=O)CSc3ccc4c(c3)OCCO4)c2C)no1 |  | inconclusive: 50.1 µM [inhibitor, partial curve, poor fit]
O=C(NC1CCCCC1)c1ccccc1NC(=O)C1CC(=O)N(c2ccc(Cl)cc2)C1 (stereo unspecified) |  | inconclusive: 39.8 µM [inhibitor, single point]
O=C(O)CCCCCN1C(=O)C(=O)/C(=C(/O)c2ccccc2)C1c1ccccc1 (stereo unspecified) |  | inconclusive: 39.8 µM [inhibitor, partial curve, poor fit]
Cc1c(CNCCCc2ccccc2)c(C(=O)O)c(C)n1Cc1ccc(Cl)cc1 | inactive: -1.68% | 

SMILES | activity, negative = inhibition | Potency
O=c1c2oc3ccccc3c2n(Cc2ccccc2F)c(=O)n1Cc1ccco1 | inactive: -22.9% | 
O=C(NCCOc1ccc(F)cc1)C1CCC(=O)N(CCN2CCOCC2)C1 (stereo unspecified) |  | active: 44.7 µM
Cc1ccc(N2CCN(C(=O)c3nn(C)c4c3CS(=O)(=O)c3ccccc3-4)CC2C)cc1 (stereo unspecified) |  | inactive and inconclusive: 79.4 µM [inhibitor, single point]
COc1ccc(C(=O)CSc2nc3cccnc3n2C)cc1 |  | inconclusive: 20 µM [inhibitor, single point]
CC1(C)CC(NC(=O)c2ccc(-c3ccc([N+](=O)[O-])cc3)o2)CC(C)(C)N1 |  | active: 44.7 µM
O=[N+]([O-])c1ccc(CN2CCN(c3ccc([N+](=O)[O-])cc3)CC2)cc1 |  | active: 12.6 µM
CCCn1cc(SCC(=O)Nc2nnc(C)s2)c2ccccc21 |  | inconclusive: 35.5 µM [inhibitor, full curve]
O=C(NCc1ccccc1)C1=C[C@@H](c2ccccc2)C[C@@H](OCc2ccc(CO)cc2)O1 | inconclusive: -87.5% [inhibitor] | 
COc1ccc(CCN2C(=O)CC(NCCc3ccc(S(N)(=O)=O)cc3)C2=O)cc1OC (stereo unspecified) |  | inconclusive: 25.1 µM [inhibitor, single point]
Cc1cccc(NC(=O)Cn2c(=O)n(Cc3ccc4c(c3)OCO4)c(=O)c3ccccc32)c1 | inactive: -1.25% | 
O=c1[nH]c2c(s1)C(c1ccccc1)C1C3CCC(C3)C1S2 (stereo unspecified) |  | active: 44.7 µM
Cc1oc(-c2cccc(Cl)c2)nc1CN1CCC(C(=O)NCc2ccco2)CC1 |  | inconclusive: 25.1 µM [inhibitor, partial curve, poor fit]
COc1ccc(NC(=O)c2oc3ccccc3c2NC(=O)Cc2ccc(F)cc2)c(OC)c1 | inactive: -18.8% | 
CC(=O)c1cccc(NC(=S)N2CCN(S(=O)(=O)c3ccccc3)CC2)c1 |  | active: 44.7 µM
Cc1ccc(C(=O)Nc2cccc(C(F)(F)F)c2)cc1Nc1ccccn1 | inactive: -6.25% [at 12.7 µM] | 
COc1ccc(N2CCN(C(CNC(=O)c3ccco3)c3ccco3)CC2)cc1 (stereo unspecified) |  | active: 28.2 µM
COc1ccc(Cl)cc1-n1c(CCC(=O)O)ccc1-c1ccc(C)cc1 |  | inconclusive: 15.8 µM [inhibitor, partial curve]
CC1(C(=O)NC(=S)N(Cc2ccccc2)c2ccccn2)CC1(Cl)Cl (stereo unspecified) |  | inconclusive: 28.2 µM [inhibitor, single point]
Cc1ccc2occ(-c3nn[nH]n3)c(=O)c2c1 |  | inconclusive: 39.8 µM [inhibitor, single point]
CCN1C(c2ccccc2)C(C)C(=O)C(C)C1c1ccccc1 (stereo unspecified) | inactive: -11.6% [at 102 µM] | 
COc1ccc(-c2nc3ccc(C(=O)NCc4ccc(C)cc4)cc3nc2-c2ccc(OC)cc2)cc1 | inactive: 23.6% | 
O=C(C1CCN(c2nnc(-n3cccc3)s2)CC1)N1CCOCC1 |  | inconclusive: 50.1 µM [inhibitor, partial curve]
COC(=O)c1c(NC(=S)Nc2ccc(CC(=O)O)cc2)sc(C)c1C |  | active: 8.91 µM

Source: PubChem BioAssay AID504332 (National Center for Advancing Translational Sciences (NCATS), 2011)
